PubChem BioAssay AID1794842 (National Center for Advancing Translational Sciences (NCATS), 2023)
Fewer than 10 of roughly 2,800 compounds were called active. Calls come from the whole dose curve; as a rule, active = well fitted curve in the direction sought with a large enough effect; inconclusive = small, poorly fitted or top-dose-only effect, or another doubt; inactive = no such curve, though single readings can be large or run the other way. This is one part of the list.

molecular target: Metallo-beta-lactamase type 2 (Klebsiella pneumoniae) (UniProt C7C422); experiment: qHTS to identify inhibitors of the New Delhi Metallo-beta-lactamase (NDM): Meropenem screen against the machine-based learning selections.; note: % of control where 0% means no effect; settings: Purified NDM-1, meropenem hydrolysis, absorbance 300 nm; at 38.4 µM (top of the series) unless noted
Procedure, shortened: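 NDM-1 (2 nM final) in 50 mM HEPES pH 7.0, 1 uM Zn2SO4, 0.01% Tween20 was preincubated with compounds for >30 min. Nitrocefin (16.7 uM final) was read at 485 nm after 15 min, and meropenem (50 uM final) at 300 nm after 30 min.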

UniProt C7C422, sequence (C7C422 whole entry, looked up): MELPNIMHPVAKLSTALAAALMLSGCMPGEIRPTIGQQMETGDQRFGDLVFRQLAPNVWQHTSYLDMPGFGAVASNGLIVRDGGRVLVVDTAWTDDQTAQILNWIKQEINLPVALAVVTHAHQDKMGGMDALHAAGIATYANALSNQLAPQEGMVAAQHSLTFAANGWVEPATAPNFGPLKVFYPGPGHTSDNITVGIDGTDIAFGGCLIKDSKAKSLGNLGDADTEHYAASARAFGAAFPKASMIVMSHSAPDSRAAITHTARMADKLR

Activity change, negative = inhibition, inactive:
O=C(O)c1cc(-c2cccc(CO)c2)cc(S(=O)(=O)N2CCOCC2)c1 1.88%
C[C@H]1[C@@H]2[C@@H](O)C([C@H](C)C(=O)NCc3cccs3)CC[C@@]2(C)CC[C@@H]1NC(=O)c1cncnc1 (stereo partly specified) 0.658%
O=C(Cc1csc(-c2ccccc2)n1)N1CCCC(c2ccn[nH]2)C1 (stereo unspecified) 0.665%
CC(C)N[C@@H]1CO[C@H](CNC(=O)c2ccncc2)[C@H]1O 1.12% [at 76.7 µM]
COc1ccc(C[C@H](NC(=O)C2=C[C@@H](NC(=O)c3ccc(OC)cc3)[C@@H](O)[C@H](O)C2)C(N)=O)cc1 1.02%
CN1C(=O)C(CC(=O)N2CCCNCC2)(Cc2ccccc2)c2ccccc21 (stereo unspecified) 3.04%
COCc1ccc(C(=O)N2CC[C@@H](c3ccc4c(c3)OCO4)[C@H](O)C2)o1 -4.01%
CCNC(=O)c1cccnc1OC1CCN(C(=O)CC)C1 (stereo unspecified) -0.695%
CCN(CC)Cc1nc(C2(O)CCN(C)CC2)cs1 0.7% [at 76.7 µM]
CC(C)C[C@@H]1N[C@H](C(=O)NCc2ccccn2)Cc2c[nH]c3cccc1c23 -1.72% [at 57.5 µM]
C[C@@H]1CN(C(=O)Cn2ccc(=O)[nH]c2=O)C[C@@]1(O)C1CCC1 -0.244%
CC1=C[C@@H](CNC(=O)NC2CCCCC2)[C@H](C(C)C)C[C@H]1Cc1nc2ccc(C)cc2[nH]1 -1.29% [at 57.5 µM]
CC(=O)Nc1cccc(-c2ccc3c(n2)c(=O)ncn3Cc2ccccc2)c1 8.17% [at 57.5 µM]
O=C(CC1CCCCC1)N1CCC2(CC1)NC(=O)N(c1ccc(F)cc1)N2 -0.975%
CC(C)(C)CC(=O)NC[C@H]1OC[C@@H](NC2CCNCC2)[C@@H]1O 52.3% [at 57.5 µM]
Cc1cc2c(cc1C(=O)N1CCC(O)(C(=O)O)CC1)OCCO2 6.93%
CSCCCN1CCC(Oc2ccc3ncccc3c2)(C(=O)O)CC1 7.88%
CS(=O)(=O)N[C@H]1C[C@H]2C(=O)Nc3ccc(-c4cccc(C(F)(F)F)c4)cc3C(=O)N2C1 3.8%
Fc1ccccc1Nc1cnc2ccc(-c3ccccc3)nn12 14.8% [at 57.5 µM]
CC(C)N1CC[C@@H]2[C@H]1C(=O)NC[C@H](CCC(=O)N1CCC(O)CC1)N2C 1.52% [at 57.5 µM]
OC1(CNCc2nc(-c3ccncc3)n[nH]2)CNCCOC1 (stereo unspecified) 21.5%
O=C(NC[C@H]1Cn2ccnc2CO1)C1CCCC1 -1.56% [at 76.7 µM]
COc1ccc(C(=O)NCc2nnc3c(-c4nc(C5CC5)no4)cccn23)c(C)c1 9.03%
O=C1CCC2(CCCO2)CCN1Cc1ccccc1 (stereo unspecified) 0.271%
O=C(Cc1c[nH]c2ncc(-c3cccnc3)cc12)NCCc1ccccn1 24.8% [at 57.5 µM]
O=C(C[C@@H]1O[C@H](CNC(=O)c2ccco2)[C@@H](O)[C@H]1O)NCc1ccc(F)cc1 65.1% [at 57.5 µM]
COCCNC(=O)[C@@H]1CCC[C@@H](NC(=O)C2CC2)CN(C)C(=O)C1 1.87% [at 57.5 µM]
COc1cccc(F)c1C(=O)N1C[C@H](N)C[C@H]1C(=O)NC(C)C 0.612%
CN1C(=O)CCC2(CNC(=O)c3ccco3)CCC=C12 (stereo unspecified) -0.938%
COc1cccc(NC(=O)N[C@H]2[C@H](O)[C@@H](N3CCN(c4ccccc4)CC3)[C@@H]3OC[C@H]2O3)c1 0.104%
O=C(c1ccc(N2CC3CC(C2)[C@H]2CCCC(=O)N2C3)nc1)N1CCN(c2cccc(Cl)c2)CC1 (stereo partly specified) 5.83%
COc1cccc(CN2CCNc3cnc(Nc4ccccc4)cc3C2)c1 9.38% [at 57.5 µM]
O=C(Cc1c[nH]c2ncc(-c3cccnc3)cc12)NC1CCC1 15.2% [at 57.5 µM]
O=C(Cc1c[nH]c2ncc(-c3ccccc3)cc12)Nc1cccnc1 0.427% [at 57.5 µM]
COc1ccc2c(c1)CCN=C2C[C@H]1CN(C(=O)c2cccs2)CC[C@H]1CC(=O)O 16.1% [at 57.5 µM]
COc1ccc(C(=O)Nc2nc3c(s2)C[C@@H]2[C@](C)(CO)[C@H](O)CC[C@@]2(C)[C@@H]3CC(=O)NC2CCCC2)cc1 8.72%
COc1ccc([C@@H](NC(=O)c2ccc3cccc(F)c3n2)C2CC(O)C2)cn1 (stereo partly specified) 3%
CSCC(=O)N[C@H]1CCN2C(=O)c3cc(-c4ccccc4F)ccc3NC(=O)[C@H]12 -2.09% [at 57.5 µM]
CN1CCC(NC[C@H]2O[C@@H](CO)[C@@H](O)[C@H]2N2CCN(c3ncccn3)CC2)CC1 73%
CC1(CCCCc2ccccc2)COc2ccc(C(=O)Nc3cccnc3)cc2N1 (stereo unspecified) 2.61% [at 57.5 µM]
CCOCCn1nc(C)cc1C(=O)N1C[C@@H](C)[C@](O)(C2CC2)C1 -1.17%
NCc1cc(NC(=O)c2ccccn2)cc(C(=O)N2CC[C@H]3CNC[C@H]32)c1 0.619%
O=C(Cc1c[nH]c2ncc(-c3ccccc3)cc12)NC1CCOCC1 4.6% [at 57.5 µM]
Cc1cccc(CN2CCCC3(CCN(Cc4cccc(O)c4)C3)C2)c1 (stereo unspecified) 1.21%
COc1ccc(C[C@H](NC(=O)C2=C[C@@H](NC(=O)CSCC(=O)O)[C@@H](O)[C@H](O)C2)C(N)=O)cc1 -3.01%
Fc1ccc(NC(=S)N[C@H]2CO[C@H]3[C@@H]2OC[C@@H]3n2nnnc2-c2ccc3c(c2)OCO3)cc1 2.33%
CN(Cc1ccccc1)Cc1cn([C@H]2CO[C@H]3[C@@H]2OC[C@@H]3NCC2CCCCC2)nn1 0.56% [at 57.5 µM]
COC(=O)[C@H](Cc1ccc(OC)cc1)NC(=O)[C@H]1CN(C(=O)c2cccnc2)CCN1S(C)(=O)=O -2.32%
COc1cccc(N2CCN(C(=O)c3cn4ccnc(-c5ccccc5)c4n3)CC2)c1 22.8%
COc1c(F)cccc1C(=O)N1CCc2onc(-c3ccccc3F)c2C1 -0.466%
Cc1noc2c(-c3cccnc3NCc3cnccn3)cc(-c3ccccc3)nc12 2.22% [at 57.5 µM]
O=C(NCc1nc(-c2ncccn2)no1)C1CC2(CCNCC2)CN1 (stereo unspecified) 14.1%
O=C(Nc1cccc(C(F)(F)F)c1)N[C@H]1CO[C@H]2[C@@H]1OC[C@@H]2Nc1nccc(-c2ccc(-c3ccccc3)cc2)n1 5.74%
CC(=O)N1CCCCC1c1nc(-c2ccccc2)n[nH]1 (stereo unspecified) -0.619%
C=CCN(C)C(=O)C[C@@H]1c2nc(NC(=O)c3cccs3)sc2C[C@@H]2[C@](C)(CO)[C@H](O)CC[C@]21C 12.1%
COC[C@H]1CCCN1Cc1nc(C2(O)CCN(Cc3ccccc3C(F)(F)F)CC2)cs1 1.02%
Cc1ccc2c(n1)N(C)[C@H](CO)CCN(Cc1cccnc1)C2 3.46% [at 57.5 µM]
O=C(Cc1ccc(Cl)cc1)N1CCC([C@@H]2CNC[C@H]2CO)CC1 2.9%
C[C@@H](NC(=O)N1CCOC[C@H]1c1ncc(-c2ccc(F)cc2)[nH]1)c1ccccc1 -0.215% [at 57.5 µM]
C[C@@H]1CN(C(=O)c2cccc(-c3ncc[nH]3)c2)CC[C@@]1(O)C1CCOCC1 7.88%
COc1cccc(-c2cccc(CCOc3cnc4c(ccn4CC(=O)O)c3)c2)c1 9.46% [at 57.5 µM]
NC(=O)c1ccc(-c2ncc3cnc(-c4cccc(F)c4)cn23)cc1 33.6% [at 57.5 µM]
CN(C)CCCNC(=O)C1CCCN(S(=O)(=O)c2ccccc2)CCC(=O)NCC1 (stereo unspecified) -2.89%
COc1ccccc1C(=O)Nc1ccnn1C1CCN(C(=O)CCN)CC1 41.4%
CCOC(=O)C1CCN(C(=O)c2ccc3c(c2)N(CC)C2CCCCCN2C3=O)CC1 (stereo unspecified) 1.8%
CC1=C[C@@H](CN2CCN(CCO)CC2)[C@H](C(C)C)C[C@H]1Cc1nnc(-c2ccccc2F)o1 -1.28%
O=C(N[C@@H]1COCC[C@H]1OCc1ccccn1)c1cnc(C2CC2)nc1 1.45%
O=C(c1ccc(Cn2cccn2)o1)N1CCCC2(CCC(=O)N(C3CC3)C2)C1 (stereo unspecified) 0.608%
CC(=O)N1CCC(NC[C@H]2COCc3nc4ccc(C)cc4n32)CC1 -2.61% [at 57.5 µM]
COc1ccc(-c2cnc(Nc3cccc(N[S+](C)(=O)[O-])c3)c3c2CCO3)cn1 7.43% [at 57.5 µM]
CCc1nc(C)c(C(=O)N2CCC(c3[nH]ncc3-c3ccccc3C)CC2)o1 0.649%
Cc1oc(C(O)c2ccccc2)nc1C(=O)Nc1ccncc1 (stereo unspecified) 4.17% [at 57.5 µM]
COc1ccc([C@H]2C[C@@H](O)[C@@H](O)[C@@H]2NC(=O)c2cc3ccccc3s2)cc1 7.6% [at 57.5 µM]
CC(C)(C)CC(=O)N1CC[C@H]2CC(=O)N(Cc3cccnc3)CC[C@H]2C1 0.408% [at 57.5 µM]
COC(=O)C1=CN(CC(=O)NCc2cccc(OC)c2)S(=O)(=O)N=C1C 5.16%
CC(C)C[C@@H]1N[C@H](C(=O)N2CCC(O)(c3ccccc3)CC2)Cc2cn(C)c3cccc1c23 -0.0467%
